Source: PubChem BioAssay (Tox21)
Inconclusive means that the source gave no clear call. Such entries were picked first, then a sample of the others. For some assays here: Potencies beside an inconclusive call are fits to weak or partial responses and may not hold up. Active and inactive are the calls of the source. Unless noted, the call rests on the fitted dose curve; in most records, active means well fitted curve in the direction sought with a large enough effect in the repeat runs; inconclusive means weak or mixed curves; inactive means no such curve, though single readings can be large; an effect the other way counts as inactive or inconclusive.

How the values were obtained:
[1] = biological target: Peroxisome proliferator-activated receptor delta (Homo sapiens) (UniProt Q03181); assay: qHTS assay to identify small molecule agonists of the peroxisome proliferator-activated receptor delta (PPARd) signaling pathway (AID 743212; calls by dose curve); details: HEK293H PPARd-UAS-bla, beta-lactamase FRET ratio, 17 h; activation: at 62.6 µM (top of the series) unless noted
Method in brief: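 Tox21 library screened in GeneBLAzer PPARd UAS-bla HEK293H cells. After compound treatment at 37 C, a FRET-based beta-lactamase substrate was applied for 2 h and fluorescence recorded.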

[2] = qHTS assay to identify small molecule antagonists of the peroxisome proliferator-activated receptor delta (PPARd) signaling pathway - cell viability counter screen (AID 743213); details: PPARd-bla HEK293H viability, CellTiter-Glo luminescence, 17 h; viability change, negative = cytotoxic: at 62 µM (top of the series) unless noted; further: nearly all actives have a fitted effect of over 50% in size
Method in brief: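 Agonist-stimulated (L165041, 300 nM final) HEK293H PPARd UAS-bla cells are exposed to compounds for 17 h at 37 C, and ATP-based luminescence (CellTiter-Glo) from the same wells reports cytotoxicity.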

[3] = biological target: Peroxisome proliferator-activated receptor delta (Homo sapiens) (UniProt Q03181); assay: qHTS assay to identify small molecule antagonists of the peroxisome proliferator-activated receptor delta (PPARd) signaling pathway (AID 743215; active means well fitted inhibition curve with a large enough effect in the signal ratio in the repeat runs, not every such curve was filed as active; inconclusive means weak or mixed curves, or effect the other way; inactive means no such curve, though single readings can be large or run the other way; the % refers to the signal ratio; on ratio activity, negative = inhibition: on the % scale 0 is the no-effect control and ±100 the full control effect); details: HEK293H PPARd-UAS-bla, beta-lactamase FRET ratio, antagonist, 17 h; ratio activity, negative = inhibition: at 62 µM (top of the series) unless noted
Method in brief: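 Plated HEK293H PPARd-bla cells rested 5 h at 37 C and 5% CO2. Compound, then agonist L165041 at 300 nM final, was added; 17 h at 37 C followed. Substrate loading, 2 h room temperature, fluorescence measured.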

[4] = biological target: Bile acid receptor (Homo sapiens) (UniProt Q96RI1); assay: qHTS assay to identify small molecule antagonists of the farnesoid-X-receptor (FXR) signaling pathway (AID 743217; active means well fitted inhibition curve with a large enough effect in the signal ratio in the repeat runs, not every such curve was filed as active; inconclusive means weak or mixed curves, or effect the other way; inactive means no such curve, though single readings can be large or run the other way; the % refers to the signal ratio); details: HEK293T FXR-UAS-bla, beta-lactamase ratio, CDCA-stimulated, 16 h; activity change, negative = inhibition: at 62.6 µM (top of the series) unless noted
Method in brief: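 Screen of the Tox21 10K library in quantitative HTS format using FXR-UAS-bla HEK 293T reporter cells. Agonist chenodeoxycholic acid, 50 uM final, added with compounds; 16 h incubation at 37 °C; beta-lactamase FRET fluorescence measured.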

[5] = qHTS assay to identify small molecule agonists of the farnesoid-X-receptor (FXR) signaling pathway - cell viability counter screen (AID 743218); details: FXR-bla HEK293T viability, CellTiter-Glo luminescence, 16 h; viability change, negative = cytotoxic: at 62.6 µM (top of the series) unless noted; further: nearly all actives have a fitted effect of over 45% in size; on viability change, negative = cytotoxic: on the % scale 0 is the no-effect control and ±100 the full control effect
Method in brief: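 Viability of FXR-bla HEK 293T cells is measured by ATP-based CellTiter-Glo luminescence following 16 h compound treatment at 37 C and a prior 2 h room-temperature beta-lactamase substrate step.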

[6] = qHTS assay to identify small molecule antagonists of the farnesoid-X-receptor (FXR) signaling pathway - cell viability counter screen (AID 743221; active means well fitted cell-killing curve with a large enough effect in the repeat runs, not every such curve was filed as active; inconclusive means weak or mixed curves, or effect the other way; inactive means no such curve, though single readings can be large or run the other way; further: nearly all actives have a fitted effect of over 50% in size); details: FXR-bla HEK293T viability, CellTiter-Glo luminescence, 16 h; activity change, negative = cytotoxicity: at 62.6 µM (top of the series)
Method in brief: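 Multiplexed counter screen: viability of FXR-bla HEK 293T cells under agonist stimulation by chenodeoxycholic acid (50 uM, final) and test compound for 16 h at 37 C, measured by CellTiter-Glo luminescence in the reporter wells.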

[7] = biological target: Vitamin D3 receptor (Homo sapiens) (UniProt P11473); assay: qHTS assay to identify small molecule agonists of the vitamin D receptor (VDR) signaling pathway (AID 743222; calls by dose curve); details: HEK293T VDR-UAS-bla, beta-lactamase FRET ratio, 16 h; activation: at 63.5 µM (top of the series) unless noted
Method in brief: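 Fluorescence from cleaved LiveBLAzer B/G FRET substrate served as readout. VDR-bla cells had been treated 16 h at 37C with test compounds in DMSO, following a 4 h settling period, and substrate was loaded for 2 h at RT.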

[8] = biological target: Vitamin D3 receptor (Homo sapiens) (UniProt P11473); assay: qHTS assay to identify small molecule antagonists of the vitamin D receptor (VDR) signaling pathway (AID 743223; active means well fitted inhibition curve with a large enough effect in the signal ratio in the repeat runs, not every such curve was filed as active; inconclusive means weak or mixed curves, or effect the other way; inactive means no such curve, though single readings can be large or run the other way; the % refers to the signal ratio); details: VDR-UAS-bla HEK293T, beta-lactamase FRET ratio, 16 h; activity change, negative = inhibition: at 61 µM (top of the series) unless noted
Method in brief: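 Cells carrying a VDR-driven beta-lactamase reporter (VDR-bla) were co-treated with compound and 3 nM final 1alpha,25-dihydroxyvitamin D3 for 16 h at 37C; reporter activity was measured as FRET substrate fluorescence after 2 h at room temperature.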

[9] = qHTS assay to identify small molecule agonists of the vitamin D receptor (VDR) signaling pathway - cell viability counter screen (AID 743224); details: VDR-bla HEK293T viability, CellTiter-Glo luminescence, 16 h; activity change, negative = cytotoxicity: at 62.6 µM (top of the series); further: nearly all actives have a fitted effect of over 50% in size
Method in brief: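 Compounds were pin-transferred onto VDR-bla cells plated 4 h earlier; following 16 h incubation at 37C, cell viability was quantified by CellTiter-Glo luminescence after 30 min at room temperature.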

[10] = qHTS assay to identify small molecule antagonists of the vitamin D receptor (VDR) signaling pathway - cell viability counter screen (AID 743225); details: VDR-bla HEK293T viability, CellTiter-Glo luminescence, 16 h; viability change, negative = cytotoxic: at 61 µM (top of the series) unless noted; further: nearly all actives have a fitted effect of over 50% in size
Method in brief: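 HEK293T VDR-bla; cpd + 1a,25-(OH)2D3 3 nM final, 16 h 37C/5% CO2; B/G FRET substrate 2 h RT; then CellTiter-Glo 30 min RT, luminescence.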

[11] = qHTS assay to identify small molecule agonists of the endoplasmic reticulum stress response signaling pathway - cell viability counter screen (AID 1159517; calls by dose curve; further: nearly all actives have a fitted effect of over 50% in size;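 on activity change, negative = cytotoxicity: HeLa cells carrying an ER stress response element beta-lactamase reporter; on the % scale 0 is the no-effect control and ±100 the full control effect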)
Method in brief: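 In parallel with the ESRE reporter read, cytotoxicity was scored by CellTiter-Glo luminescence (30 min, room temperature) on HeLa ESRE-bla cells dosed for 5 hr.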

[12] = qHTS assay to identify small molecule antagonists of the retinoid-related orphan receptor gamma (ROR-gamma) signaling pathway - cell viability counter screen (AID 1159520); further: nearly all actives have a fitted effect of over 50% in size
Method in brief: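 Tet-on ROR gamma CHO cells were given compounds for 2 hr, then doxycycline hyclate at 1 uM final, and incubated 16 hr at 37 C. Viability was measured as ATP content by CellTiter-Glo luminescence.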

[13] = biological target: Nuclear receptor ROR-gamma (Homo sapiens) (UniProt P51449); assay: qHTS assay to identify small molecule antagonists of the retinoid-related orphan receptor gamma (ROR-gamma) signaling pathway (AID 1159521; further: nearly all actives have a fitted effect of over 50% in size)
Method in brief: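 Cells were plated, rested 4 h at 37 C, exposed to compounds for 2 h, then given 1 uM final doxycycline hyclate to induce RORγ expression. After 16 h, ONE-Glo luminescence from the ROR response element reporter was measured.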

[14] = qHTS assay to identify small molecule agonists of the AP-1 signaling pathway - cell viability counter screen (AID 1159525; calls by dose curve; further: nearly all actives have a fitted effect of over 55% in size)
Method in brief: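 Same-well cytotoxicity counter screen of the Tox21 10K library in ME-180 cells. The readout is ATP-dependent luminescence after 5 h compound treatment. Data are normalised to DMSO and tetra n-octyl ammonium bromide controls.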

[15] = qHTS assay to identify small molecule agonists of the AP-1 signaling pathway (AID 1159526; calls by dose curve; on activation: on the % scale 0 is the no-effect control and ±100 the full control effect); details: ME-180 (cervical carcinoma) AP-1-bla reporter, beta-lactamase FRET ratio, 5 h; activation: at 76.8 µM (top of the series) unless noted
[16] = biological target: Retinoic acid receptor RXR-alpha (Homo sapiens) (UniProt P19793); assay: qHTS assay to identify small molecule agonists of the RXR signaling pathway (AID 1159527; calls by dose curve; further: nearly all actives have a fitted effect of over 35% in size); details: HEK293T RXRa-UAS-bla, beta-lactamase ratio, 16 h; activation: at 76.8 µM (top of the series) unless noted
Method in brief: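 Cells plated at 2,000/well, rested 5 hr at 37 C, pin-dosed with DMSO compound solutions, incubated 16 hr, then loaded with B/G FRET substrate for 2 hr at RT before dual-emission fluorescence reading.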

[17] = qHTS assay to identify small molecule antagonists of the retinoid acid receptor (RAR) signaling pathway - cell viability counter screen (AID 1159551); further: nearly all actives have a fitted effect of over 35% in size
Method in brief: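 ATP-based viability, C3RL4 cells, 6 h at 37 C with 1 uM final retinol co-added after compound; luminescence read 30 min post CellTiter-Glo, RT.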

[18] = qHTS assay to identify small molecule agonists of the RXR signaling pathway - cell viability counter screen (AID 1159529); further: nearly all actives have a fitted effect of over 50% in size
Method in brief: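 Steps: seed RXR-alpha-UAS-bla HEK 293T cells in assay medium containing 2% charcoal-stripped FBS; incubate 5 hr; add compounds in DMSO; incubate 16 hr at 37 C; after the bla read, add CellTiter-Glo and read luminescence at 30 min.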

[19] = biological target: Bile acid receptor (Homo sapiens) (UniProt Q96RI1); assay: qHTS assay to identify small molecule agonists of the farnesoid-X-receptor (FXR) signaling pathway (AID 743220; active means well fitted activation curve with a large enough effect in the signal ratio in the repeat runs, not every such curve was filed as active; inconclusive means weak or mixed curves, or effect the other way; the % refers to the signal ratio); details: HEK293T FXR-UAS-bla, beta-lactamase FRET ratio, 16 h; activation: at 62.6 µM (top of the series) unless noted
Method in brief: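 FXR-UAS-bla HEK 293T cells carrying a UAS-driven beta-lactamase reporter were plated for 5 h at 37C/5% CO2, then exposed to DMSO-dissolved Tox21 10K compounds for 16 h at 37C. A LiveBLAzer B/G FRET substrate was loaded for 2 h at room temperature before fluorescence reading.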
Potency means the concentration at half of the fitted maximal effect; tags describe the fitted curve by direction and shape or compound fluorescence and quenching.

UniProt Q03181, sequence (Q03181 whole entry, looked up): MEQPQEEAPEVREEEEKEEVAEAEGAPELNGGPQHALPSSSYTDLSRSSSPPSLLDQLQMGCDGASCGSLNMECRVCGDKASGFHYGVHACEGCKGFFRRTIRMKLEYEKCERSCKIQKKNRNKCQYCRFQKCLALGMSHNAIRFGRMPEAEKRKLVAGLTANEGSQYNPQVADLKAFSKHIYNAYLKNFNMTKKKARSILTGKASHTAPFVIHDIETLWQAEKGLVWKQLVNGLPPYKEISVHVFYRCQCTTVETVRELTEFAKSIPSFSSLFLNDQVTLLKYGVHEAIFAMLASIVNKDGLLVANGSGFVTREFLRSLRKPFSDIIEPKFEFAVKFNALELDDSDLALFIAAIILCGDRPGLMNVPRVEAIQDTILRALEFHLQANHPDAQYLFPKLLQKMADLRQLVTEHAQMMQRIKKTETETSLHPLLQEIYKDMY
UniProt Q96RI1, sequence (Q96RI1 whole entry, looked up): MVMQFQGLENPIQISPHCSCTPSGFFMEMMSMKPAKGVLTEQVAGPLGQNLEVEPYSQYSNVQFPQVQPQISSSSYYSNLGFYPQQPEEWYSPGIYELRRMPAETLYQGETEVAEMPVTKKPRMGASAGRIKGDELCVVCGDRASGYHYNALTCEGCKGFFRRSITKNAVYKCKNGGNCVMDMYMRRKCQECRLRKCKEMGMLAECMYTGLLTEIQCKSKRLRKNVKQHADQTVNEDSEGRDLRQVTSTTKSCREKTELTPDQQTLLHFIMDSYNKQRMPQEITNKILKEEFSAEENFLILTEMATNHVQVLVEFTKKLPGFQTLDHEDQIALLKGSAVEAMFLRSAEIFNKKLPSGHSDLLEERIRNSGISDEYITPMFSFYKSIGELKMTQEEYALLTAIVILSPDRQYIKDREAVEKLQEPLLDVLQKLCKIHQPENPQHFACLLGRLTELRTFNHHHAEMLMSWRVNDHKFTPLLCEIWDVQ
UniProt P11473, sequence (P11473 whole entry, looked up): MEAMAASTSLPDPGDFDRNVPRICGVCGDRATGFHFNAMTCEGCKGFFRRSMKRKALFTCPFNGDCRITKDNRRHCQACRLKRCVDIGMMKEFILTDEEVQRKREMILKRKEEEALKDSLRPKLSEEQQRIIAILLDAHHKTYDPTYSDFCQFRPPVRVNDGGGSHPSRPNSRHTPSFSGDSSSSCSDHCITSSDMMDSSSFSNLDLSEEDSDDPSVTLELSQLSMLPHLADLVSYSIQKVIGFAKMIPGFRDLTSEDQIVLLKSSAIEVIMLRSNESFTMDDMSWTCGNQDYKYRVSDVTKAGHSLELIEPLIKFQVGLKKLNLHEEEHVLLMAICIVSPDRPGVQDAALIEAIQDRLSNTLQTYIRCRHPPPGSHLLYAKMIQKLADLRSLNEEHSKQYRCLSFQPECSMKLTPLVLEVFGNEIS
UniProt P19793, sequence (P19793 whole entry, looked up): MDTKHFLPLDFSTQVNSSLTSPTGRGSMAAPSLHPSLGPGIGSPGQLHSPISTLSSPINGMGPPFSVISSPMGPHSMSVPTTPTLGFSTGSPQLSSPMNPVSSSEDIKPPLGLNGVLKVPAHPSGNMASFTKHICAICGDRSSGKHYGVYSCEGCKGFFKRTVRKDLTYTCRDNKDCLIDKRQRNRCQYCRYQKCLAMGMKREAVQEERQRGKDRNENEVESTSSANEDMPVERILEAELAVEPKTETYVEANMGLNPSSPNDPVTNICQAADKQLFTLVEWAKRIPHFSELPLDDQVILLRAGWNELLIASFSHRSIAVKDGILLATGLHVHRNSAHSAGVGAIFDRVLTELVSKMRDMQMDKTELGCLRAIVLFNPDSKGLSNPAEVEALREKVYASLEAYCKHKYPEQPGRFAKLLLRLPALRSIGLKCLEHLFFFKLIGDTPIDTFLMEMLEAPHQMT

CO[C@@H]1[C@@H](OC)[C@H](C)[C@@](O)(CC(=O)O)O[C@H]1[C@H](C)[C@H]1O[C@@]2(CC[C@@](C)([C@H]3CC[C@@](C)([C@@H]4O[C@@H]([C@H]5O[C@](C)(O)[C@H](C)C[C@@H]5C)C[C@@H]4OC4C[C@H](OC)[C@@H](OC)[C@H](C)O4)O3)O2)C[C@H](O)[C@H]1C (stereo partly specified)
active: Potency [2] 5.31 µM | Potency [5] 9.44 µM | Potency [6] 9.44 µM | Potency [9] 5.96 µM | Potency [12] 9.44 µM | Potency [13] 0.237 µM
inconclusive: Potency [1] 13.3 µM [rising, full curve, poor fit] | Potency [3] 13.3 µM [rising, full curve] | Potency [4] 15 µM [rising, full curve] | Potency [7] 0.0596 µM [rising, full curve, poor fit] | Potency [8] 10.7 µM | Potency [10] 26.8 µM [cytotoxic, single point] | Potency [11] 3.01 µM [cytotoxic, full curve] | Potency [14] 19 µM [cytotoxic, partial curve, poor fit] | Potency [15] 6.74 µM [falling, partial curve, poor fit] | Potency [16] 0.12 µM [inhibitor, partial curve, poor fit] | Potency [17] 37.6 µM [cytotoxic, single point]

c1cc[c]([Bi]([c]2ccccc2)[c]2ccccc2)cc1
inconclusive: ratio activity, negative = inhibition [3] 14.4% | Potency [8] 27.5 µM [rising, partial curve] | Potency [12] 77 µM [cytotoxic, partial curve, poor fit] | activation [15] 23.4% | Potency [16] 7.76 µM | Potency [18] 43.6 µM [cytotoxic, partial curve]
inactive: Potency [5] | Potency [11]

Cc1c(Cl)cccc1[N+](=O)[O-]
inconclusive: Potency [2] 7.76 µM [cytotoxic, single point] | activity change, negative = inhibition [8] 41.3% | activation [16] -0.527%
inactive: Potency [3] | Potency [4] | Potency [11] | Potency [12]

CC(C)(C)C(O)/C=C/c1ccc2c(c1)OCO2 (stereo unspecified)
inactive: Potency [8] | Potency [12]
inconclusive: Potency [11] 0.535 µM [cytotoxic, partial curve, poor fit] | activation [15] 14.7% [at 35.3 µM]

NC(=O)N(O)[C@@H]1C=C[C@H](Oc2cccc(Oc3ccc(F)cc3)c2)C1
inconclusive: Potency [5] 43.6 µM [rising, single point] | activation [7] -7.86% | Potency [12] 68.6 µM [cytotoxic, partial curve, poor fit] | Potency [15] 43.6 µM [partial curve] | Potency [16] 17.4 µM [inhibitor, partial curve]
inactive: Potency [3] | Potency [8] | Potency [11] | Potency [13]

CC1(C)[C@@H](O)CC[C@]2(C)[C@H]3C(=O)C=C4[C@@H]5C[C@@](C)(C(=O)O)CC[C@]5(C)CC[C@@]4(C)[C@]3(C)CC[C@@H]12
inconclusive: activation [1] -15% | Potency [2] 2.16 µM [cytotoxic, single point] | Potency [3] 10.8 µM [rising, partial curve, poor fit] | Potency [4] 61 µM [rising, single point] | Potency [5] 54.3 µM [cytotoxic, single point] | Potency [19] 6.84 µM [fluorescent, full curve] | Potency [6] 54.3 µM | Potency [9] 21.6 µM [cytotoxic, full curve, poor fit] | Potency [11] 54.3 µM [cytotoxic, single point] | Potency [12] 53.9 µM [cytotoxic, partial curve, poor fit] | Potency [14] 24.3 µM [cytotoxic, partial curve, poor fit] | Potency [15] 30.6 µM

O[C@@H](CNC[C@H](O)[C@H]1CCc2cc(F)ccc2O1)[C@@H]1CCc2cc(F)ccc2O1
active: Potency [5] 13.3 µM | Potency [6] 29.8 µM | Potency [9] 21.1 µM | Potency [10] 21.3 µM | Potency [18] 19 µM
inconclusive: activation [1] -14.5% | Potency [3] 10.6 µM [fluorescent, partial curve] | Potency [4] 29.8 µM [rising, partial curve, poor fit] | activation [7] -30.8% | Potency [8] 26.8 µM | Potency [11] 21.3 µM [cytotoxic, partial curve] | Potency [12] 33.5 µM [cytotoxic, single point] | Potency [16] 9.52 µM [inhibitor] | Potency [17] 23.7 µM [cytotoxic, partial curve, poor fit]
